Data from publication PMC4336329 (PLoS ONE, 2015).
The campaign covered roughly 310,000 compounds. About 14,000 (4.5%) showed an effect of 50% or more. Effects have a minus sign here. The list shows a part of the results.
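Further: peak tail current of the secondary pulse compared with the same well before compound.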

Each molecule was assayed against human ether-à-go-go-related gene (hERG) potassium channel (human, UniProt Q12809) (assay: primary screen, population patch clamp on CHO cells stably expressing hERG).
human ether-à-go-go-related gene (hERG) potassium channel, sequence (Q12809 whole entry, looked up): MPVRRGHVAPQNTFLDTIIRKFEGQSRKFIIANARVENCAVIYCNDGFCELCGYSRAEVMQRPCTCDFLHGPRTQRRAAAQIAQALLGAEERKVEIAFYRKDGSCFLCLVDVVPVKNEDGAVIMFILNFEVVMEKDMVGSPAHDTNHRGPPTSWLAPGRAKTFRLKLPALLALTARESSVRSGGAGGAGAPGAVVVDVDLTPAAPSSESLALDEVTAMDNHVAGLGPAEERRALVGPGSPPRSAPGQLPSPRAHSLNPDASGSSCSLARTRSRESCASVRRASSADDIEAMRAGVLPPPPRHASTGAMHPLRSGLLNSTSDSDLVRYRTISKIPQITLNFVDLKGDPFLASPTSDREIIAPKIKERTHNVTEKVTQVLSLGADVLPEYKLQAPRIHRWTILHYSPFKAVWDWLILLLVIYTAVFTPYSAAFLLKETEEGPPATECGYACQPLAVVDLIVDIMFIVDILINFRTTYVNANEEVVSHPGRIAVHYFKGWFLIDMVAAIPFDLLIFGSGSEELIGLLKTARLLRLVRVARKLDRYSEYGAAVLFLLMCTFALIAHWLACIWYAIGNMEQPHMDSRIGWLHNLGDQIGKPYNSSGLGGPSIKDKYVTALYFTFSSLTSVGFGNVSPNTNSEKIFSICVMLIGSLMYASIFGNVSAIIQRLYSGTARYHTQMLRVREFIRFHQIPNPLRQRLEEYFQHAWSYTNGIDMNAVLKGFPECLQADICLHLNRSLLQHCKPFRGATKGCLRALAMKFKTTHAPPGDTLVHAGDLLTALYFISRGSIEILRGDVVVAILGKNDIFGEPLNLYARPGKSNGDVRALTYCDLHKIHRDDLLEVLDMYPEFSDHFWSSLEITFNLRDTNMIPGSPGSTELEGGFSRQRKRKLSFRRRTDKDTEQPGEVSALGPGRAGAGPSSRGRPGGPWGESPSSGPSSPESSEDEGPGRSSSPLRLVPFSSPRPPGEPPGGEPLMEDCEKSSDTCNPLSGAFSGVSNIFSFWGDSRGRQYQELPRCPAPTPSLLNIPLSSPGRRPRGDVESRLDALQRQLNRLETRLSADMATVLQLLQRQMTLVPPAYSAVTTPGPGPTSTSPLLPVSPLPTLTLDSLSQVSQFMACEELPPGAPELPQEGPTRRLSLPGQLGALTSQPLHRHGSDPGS
In the case of `CC1(C)CC(=O)C(Sc2ccc(Br)cc2)=C(O)C1`, the “hERG current change (%, negative = inhibition) at 10uM” value is reported as 15.5%.
In the case of `Cc1c(Cl)cccc1NC(=S)NC1CCN(C(C)C)CC1`, the “hERG current change (%, negative = inhibition) at 10uM” value is reported as 3.61%.
With `Cc1ccc(C)c(N2CCN(CCCNC(=O)Cn3cccc3C(=O)c3ccccc3C)CC2)c1` the “hERG current change (%, negative = inhibition) at 10uM” value was -74%.
In the case of `O=c1cc(-c2ccc(O)c(O)c2)oc2c(C3O[C@H](CO)[C@@H](O)[C@H](O)[C@H]3O)c(O)cc(O)c12` (stereo partly shown), the “hERG current change (%, negative = inhibition) at 10uM” value is reported as -2.58%.
With `CCc1c(C)sc(NC(=O)Cc2ccccc2OC)c1C(=O)N1CCOCC1` the “hERG current change (%, negative = inhibition) at 10uM” value was -16.4%.
With `CCOC(=O)C1CCCN(C(=O)/C=C/c2ccccc2[N+](=O)[O-])C1` (stereo not shown) the “hERG current change (%, negative = inhibition) at 10uM” value was -12.6%.
`Nc1c(C(=O)NCc2ccc3c(c2)OCO3)nnn1Cc1cccc(F)c1` was tested, and the “hERG current change (%, negative = inhibition) at 10uM” value was 9.79%.
For `Cc1cc(C)cc(N2C(=O)CC(N3CCOCC3)C2=O)c1` (stereo not shown), the “hERG current change (%, negative = inhibition) at 10uM” value was 14.9%.
With `O=C(O)Cc1ccc(NC(=S)Nc2ccc(Br)cc2Cl)cc1` the “hERG current change (%, negative = inhibition) at 10uM” value was 7.02%.
For `Cc1onc(-c2ccccc2)c1C(=O)Oc1ccccc1`, the “hERG current change (%, negative = inhibition) at 10uM” value was -8.35%.
In the case of `CC(Sc1ccccc1)C(=O)Nc1ccc(S(=O)(=O)N2CCOCC2)cc1` (stereo not shown), the “hERG current change (%, negative = inhibition) at 10uM” value is reported as -13.6%.
`CN(Cc1ccccc1)C(=S)NC(=O)c1ccc(-c2ccccc2)cc1` was tested, and the “hERG current change (%, negative = inhibition) at 10uM” value was 19.8%.
With `Nc1nc(SCC(=O)N2CCN(c3ccccc3)CC2)n[nH]1` the “hERG current change (%, negative = inhibition) at 10uM” value was 19.5%.
In the case of `O=C(C1CCN(S(=O)(=O)c2ccccc2)CC1)N1CCOCC1`, the “hERG current change (%, negative = inhibition) at 10uM” value is reported as -10.3%.
For `O=S(=O)(c1cc(F)ccc1F)N1CCN(c2ccccn2)CC1`, the “hERG current change (%, negative = inhibition) at 10uM” value was -0.384%.
`Cc1ccc(NC(=O)CCC2CC(C)(C)OC2=O)cc1` (stereo not shown) was tested, and the “hERG current change (%, negative = inhibition) at 10uM” value was 23.6%.
In the case of `COc1cccc(NC(=O)NNC(=O)C(C)Oc2ccc3ccccc3c2)c1` (stereo not shown), the “hERG current change (%, negative = inhibition) at 10uM” value is reported as 4.48%.
`COc1ccc(Cl)cc1NC(=S)N1CC(C)OC(C)C1` (stereo not shown) was tested, and the “hERG current change (%, negative = inhibition) at 10uM” value was 2.89%.
`COc1ccc(OC)c(NC(=O)c2ccc(NS(C)(=O)=O)cc2)c1` was tested, and the “hERG current change (%, negative = inhibition) at 10uM” value was -17.8%.
For `Fc1ccc(NC(=S)NCc2cccnc2)cc1`, the “hERG current change (%, negative = inhibition) at 10uM” value was 13.1%.
For `Cc1ccc(C)c(-c2cc(C(=O)Nc3cccc(C(=O)O)c3)c3ccccc3n2)c1`, the “hERG current change (%, negative = inhibition) at 10uM” value was 20.3%.
With `CC(=O)c1c(-c2ccc(Cl)cc2Cl)noc1C` the “hERG current change (%, negative = inhibition) at 10uM” value was 9.37%.
`CCC(C)CCN1C(N(C)C)=NC[C@@H]1C` (stereo partly shown) was tested, and the “hERG current change (%, negative = inhibition) at 10uM” value was 15.3%.
For `Cn1c(=O)c(C(=O)COC(=O)c2cc(-c3ccco3)nc3ccccc23)c(N)n(CC2CC2)c1=O`, the “hERG current change (%, negative = inhibition) at 10uM” value was -5.15%.
`Cc1ccc(C(C)NC(=O)C2CCCO2)cc1C` (stereo not shown) was tested, and the “hERG current change (%, negative = inhibition) at 10uM” value was 19.1%.
In the case of `O=C(NCC1CCCO1)c1cc2ccccc2o1` (stereo not shown), the “hERG current change (%, negative = inhibition) at 10uM” value is reported as 18.4%.
`Cc1nn(C)c(C)c1NC(=O)COc1ccc(Cl)cc1Br` was tested, and the “hERG current change (%, negative = inhibition) at 10uM” value was -10.5%.
With `CCC(C(=O)N1CCN(c2ncccn2)CC1)c1ccccc1` (stereo not shown) the “hERG current change (%, negative = inhibition) at 10uM” value was -0.742%.
In the case of `COc1ccc(C2/C(=C(/O)c3ccc(Cl)cc3)C(=O)C(=O)N2CCN2CCOCC2)c(OC)c1` (stereo not shown), the “hERG current change (%, negative = inhibition) at 10uM” value is reported as -2.66%.
`Cc1ccc(C2C3CN(C(C)C)CC=C3C(C#N)=C(N)C2(C#N)C#N)cc1` (stereo not shown) was tested, and the “hERG current change (%, negative = inhibition) at 10uM” value was -23.1%.
In the case of `Cc1[nH]c2ccccc2c1-c1ccc(Cl)nn1`, the “hERG current change (%, negative = inhibition) at 10uM” value is reported as 20.5%.
With `O=C(O)c1cnn2cc(-c3[nH]ncc3[N+](=O)[O-])cnc12` the “hERG current change (%, negative = inhibition) at 10uM” value was 5.14%.
With `CC(C)Nc1nc(N)c(C(=O)C23CC4CC(CC(C4)C2)C3)s1` the “hERG current change (%, negative = inhibition) at 10uM” value was -0.879%.
`Cc1ccc(OCC(=O)NNC(=O)CCc2ccccc2)c(Br)c1` was tested, and the “hERG current change (%, negative = inhibition) at 10uM” value was 10%.
For `CC(C)c1ccc(C(C)NC(=O)C2CCCC2)cc1` (stereo not shown), the “hERG current change (%, negative = inhibition) at 10uM” value was -2.72%.
In the case of `COc1nc(C#N)nc(N(C)C)n1`, the “hERG current change (%, negative = inhibition) at 10uM” value is reported as -7.09%.
In the case of `CCN(CC)C(=N)/C(C#N)=N/Nc1ccc(C)cc1`, the “hERG current change (%, negative = inhibition) at 10uM” value is reported as -56.6%.
`COc1ccccc1NC(=S)NCCc1ccc(F)cc1` was tested, and the “hERG current change (%, negative = inhibition) at 10uM” value was 1.82%.
In the case of `Nc1nc2nc(-c3ccc(Cl)cc3)cc(C(F)(F)F)n2n1`, the “hERG current change (%, negative = inhibition) at 10uM” value is reported as 11.6%.
In the case of `CCN1c2ccccc2NC2C1C(C(C)=O)C(=O)N2c1ccc(Cl)cc1` (stereo not shown), the “hERG current change (%, negative = inhibition) at 10uM” value is reported as -8.55%.
In the case of `Cc1cc2ccccc2c(=O)n1CC(=O)NCC(=O)N(C)C1CCCCC1`, the “hERG current change (%, negative = inhibition) at 10uM” value is reported as 4.06%.
For `CCCn1c(SCC(=O)NC(C)C)nc2sc3c(c2c1=O)CCC3`, the “hERG current change (%, negative = inhibition) at 10uM” value was 15.5%.
With `Cn1c(SCC(=O)N2CCN(c3ccccc3)CC2)nnc1-c1ccccc1` the “hERG current change (%, negative = inhibition) at 10uM” value was -11.2%.
With `CC(Oc1ccccc1)C(=O)Nc1ccccc1O` (stereo not shown) the “hERG current change (%, negative = inhibition) at 10uM” value was 17%.
In the case of `CCN(CC(=O)NC1CCS(=O)(=O)C1)C(=O)c1ccc(OC)c([N+](=O)[O-])c1` (stereo not shown), the “hERG current change (%, negative = inhibition) at 10uM” value is reported as 12%.
In the case of `Cc1cc(NC(=O)CSc2ccc3nnc(-c4ccc(F)cc4)n3n2)no1`, the “hERG current change (%, negative = inhibition) at 10uM” value is reported as 1.2%.
